The campaign covered roughly 310,000 compounds. About 14,000 (4.5%) showed an effect of 50% or more. Effects have a minus sign here. The list shows a part of the results.
Target: human ether-à-go-go-related gene (hERG) potassium channel (human, UniProt Q12809)
Assay: primary screen, population patch clamp on CHO cells stably expressing hERG
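Note: peak tail current of the secondary pulse compared with the same well before compound.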

human ether-à-go-go-related gene (hERG) potassium channel, sequence (Q12809 whole entry, looked up): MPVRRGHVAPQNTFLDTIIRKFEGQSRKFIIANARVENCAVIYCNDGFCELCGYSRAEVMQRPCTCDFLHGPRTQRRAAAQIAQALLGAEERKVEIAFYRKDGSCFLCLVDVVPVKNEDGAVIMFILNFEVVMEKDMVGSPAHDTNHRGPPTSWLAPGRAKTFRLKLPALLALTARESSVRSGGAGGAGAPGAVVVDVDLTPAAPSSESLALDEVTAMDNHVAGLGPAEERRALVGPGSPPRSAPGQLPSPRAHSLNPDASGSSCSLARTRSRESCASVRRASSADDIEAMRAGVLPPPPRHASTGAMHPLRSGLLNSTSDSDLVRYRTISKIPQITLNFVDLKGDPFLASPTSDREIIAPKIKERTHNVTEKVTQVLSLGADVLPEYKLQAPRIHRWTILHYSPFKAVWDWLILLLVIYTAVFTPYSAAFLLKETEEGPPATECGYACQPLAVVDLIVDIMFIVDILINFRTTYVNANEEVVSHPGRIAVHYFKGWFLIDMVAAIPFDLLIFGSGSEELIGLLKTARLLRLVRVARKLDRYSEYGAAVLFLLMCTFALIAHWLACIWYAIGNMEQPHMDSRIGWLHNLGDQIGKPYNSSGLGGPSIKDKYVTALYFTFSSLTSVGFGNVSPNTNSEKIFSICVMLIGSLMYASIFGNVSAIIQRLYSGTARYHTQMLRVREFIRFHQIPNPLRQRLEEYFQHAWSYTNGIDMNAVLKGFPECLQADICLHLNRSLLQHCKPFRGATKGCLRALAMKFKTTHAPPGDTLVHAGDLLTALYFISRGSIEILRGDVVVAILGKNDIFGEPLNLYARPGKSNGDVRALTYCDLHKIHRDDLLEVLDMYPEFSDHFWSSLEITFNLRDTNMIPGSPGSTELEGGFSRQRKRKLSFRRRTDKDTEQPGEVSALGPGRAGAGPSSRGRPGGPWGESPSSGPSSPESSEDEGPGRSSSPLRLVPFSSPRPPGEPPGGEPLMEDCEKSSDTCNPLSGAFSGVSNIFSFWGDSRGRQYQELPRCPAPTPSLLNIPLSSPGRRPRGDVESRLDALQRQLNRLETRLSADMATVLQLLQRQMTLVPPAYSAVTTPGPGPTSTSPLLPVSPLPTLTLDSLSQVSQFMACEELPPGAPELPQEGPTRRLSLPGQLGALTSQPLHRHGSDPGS

Compound | hERG current change (%, negative = inhibition) at 10uM
CCCCCCc1c(O)nc(SCC(=O)O)[nH]c1=O | -10.9%
CCCOc1cccc(C(=O)Nc2ccc3c(c2)OCCO3)c1 | 0.786%
COc1ccc(S(=O)(=O)N2CCc3ccccc32)cc1C(=O)OCc1nnc(-c2ccccc2)o1 | 0.72%
Cc1c(NC(=O)c2cnn3c2NC(c2ccccc2)CC3C(F)(F)F)c(=O)n(-c2ccccc2)n1C (stereo not drawn) | -16%
CN(C(=O)c1ccc(NC(=O)Cc2ccc(NC(=O)C3CCN(C(=O)C4CC4)CC3)cc2)cc1)C1CC1 | -7.85%
O=C(Nc1ccc(Cl)cc1Cl)c1cc2ccccc2o1 | 6.28%
C/C(=C\c1ccccc1)C1Nc2cccc3cccc(c23)N1 | 11.9%
CCCn1c(=O)c(C(=O)NC(C)c2ccccc2)c(O)c2ccccc21 (stereo not drawn) | 16.7%
O=[n+]1c2c(n([O-])c3cc(F)c(N4CCCC4)cc31)CCCC2 | 6.38%
CSc1nnc(-c2ccc(S(=O)(=O)N3CCOCC3)cc2)n1C | -25%
Clc1nc2c(ccc3ccccc32)[nH]1 | -10.8%
Cc1ccc(S(=O)(=O)N2CCCC2C(=O)Nc2ccc(O)cc2)cc1 (stereo not drawn) | 2.28%
CC(C)(C)C(=O)COC(=O)CCc1nc2ccccc2[nH]c1=O | 6.51%
COc1cc(/C=C/C(=O)OCC(=O)Nc2c(C)n(C)n(-c3ccccc3)c2=O)ccc1OCC#N | 14.9%
COc1ccc(OCCC(=O)OCC(=O)NCCc2ccccc2)cc1 | 6.65%
CCC(C)NS(=O)(=O)c1ccc(OC)c(Cl)c1Cl (stereo not drawn) | 1.98%
Cc1ccc(CNC(=O)C2CCN(S(=O)(=O)N3CCCC3)CC2)cc1 | 0.472%
COc1ccc(CNC(=O)CSc2nnc3c(n2)[nH]c2ccc(OC)cc23)cc1 | 12.8%
CCN(CC)CCn1c2c(c(SCC(=O)Nc3ccc4c(c3)OCO4)nc1=O)CCC2 | -39.2%
Cc1nc(CC(=O)Nc2nc(C(C)(C)C)cs2)cs1 | -14.3%
O=C(O)c1cccc(CN2C(=O)CSC2=O)c1 | 19.4%
N#Cc1ccccc1OCC(=O)OCC(=O)NC1CCCCCC1 | 18.6%
OCCCc1cn(Cc2ccccc2)c2ccccc12 | -3.07%

Compound | hERG current change (%, negative = inhibition) at 10uM
CCn1nc(C)c(/C=N\NC(=O)c2cccc(OC)c2)c1C | 9.25%
CCCCNC(=O)CSc1nnc(Cc2ccc(Cl)c(Cl)c2)c(=O)[nH]1 | 15.9%
COc1cc(CN(CC2CCCO2)C(=O)c2cccs2)cc(OC)c1OC (stereo not drawn) | 10.9%
Cl.Cn1c(=O)c2c(nc(N3CCCCC3)n2CCCNC2=NCCCC2)n(C)c1=O | 9.43%
O=c1c2ccccc2nc(N/N=C/c2ccccc2)n1O | -3.87%
CC(C)CN(Cc1cc(=O)oc2cc3c(cc12)CCCC3)CC(C)C | 11.9%
Cc1ccc(C(C(=O)NCc2ccc(F)cc2)N(C(=O)c2csnn2)C2CC2)cc1 (stereo not drawn) | -19.3%
CCS(=O)(=O)N1Cc2ccccc2CC1C(=O)Nc1nccs1 (stereo not drawn) | 0.999%
CCOc1ccc(NC(=O)CN(C)C(=O)CN2C(=O)NC3(CCCC3)C2=O)cc1OCC | 6.88%
Cc1ccccc1N1CC(C(=O)Nc2nnc(SCCC3OCCO3)s2)CC1=O (stereo not drawn) | 16.3%
CC(=O)c1ccc(NS(=O)(=O)c2cc3c(cc2C)N(C)CCO3)cc1 | 13.5%
CN(C)N=Nc1nc2c([nH]1)c(=O)n(C)c(=O)n2C | 11.3%
Cc1ccc(S(=O)(=O)NCC(=O)NCC(=O)OCC(=O)N2CC(=O)Nc3ccccc32)cc1C | -10%
O=C(COC(=O)CNC(=O)c1ccc(Cl)c([N+](=O)[O-])c1)NCC1CCCO1 (stereo not drawn) | 1.74%
Cc1coc(C)c1C(=O)CC1(O)C(=O)N(Cc2ccccc2)c2ccccc21 (stereo not drawn) | -6.46%
COc1ccccc1C(=O)NCc1ccc(-c2nc3ccccc3s2)cc1 | -11%
CC1CC2OC(=O)C3(C)CCCC(C)(C23)C1(O)CCc1ccoc1 (stereo not drawn) | -35.4%
NS(=O)(=O)c1ccc(NC2=CC(c3ccc([N+](=O)[O-])cc3)N(c3ccc(S(N)(=O)=O)cc3)C2=O)cc1 (stereo not drawn) | -6.47%
COc1ccc(S(=O)(=O)Nc2cc(C)on2)cc1 | 12.6%
CSc1ccc(CNC(=O)c2c(C)noc2C)s1 | 3.82%
Cc1cccc2cncc(OCc3nnc(SC(F)F)n3C)c12 | 4.25%
Cc1nn(C)c(C)c1N1C(=O)c2cccc3c(Br)ccc(c23)C1=O | -1.3%
